Experimental data: the supplement of paper PMC11417369
The list shows a part of the results.

Tested on: PF3D7_0420300 AP2 domain 1 (GST-tagged)
Assay: gcPBM binding intensity (ln(normalized median fluorescence intensity)); higher = stronger DNA binding
How it was run: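 Using an Agilent 4 × 180k array, primer-extended double-stranded 36-bp intergenic genomic probes and negative controls were exposed for 1 h to GST-fused P. falciparum DNA-binding domains expressed in E. coli. Binding was carried out in 1× PBS with 1% milk, 0.2 mg/ml BSA, 0.5% salmon testes DNA and 0.03% Triton X-100, and protein was detected with Alexa488 anti-GST antibody and a 488 nm scan. Binding intensity is the highest Masliner-normalised natural-log median intensity across replicate spots of either probe orientation.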

Sequence	gcPBM binding intensity (ln)
AGTAAAAAAAATATCTGTACATATTAATATAAATGT [XGTACX_site6234]	9.27
AAATATTATTCTTTTATTTTTAAACATATAATTATA [GTGCAC_negctrl_site136]	9.05
TTATACACTGATAAAAGTACATTTGTATGTTTTTTT [XGTACX_site8959]	9.24
ATCTAAAAATTTTACGCACACAAGTAAAAAAAAAAA [CACACA_site2485]	9.36
TTTTATAATCATAATAGTACTTTTTCTTTTTCACAT [XGTACX_site5017]	9.17
TAATCATAAAAAAATACACACATATAAAATATAGAT [CACACA_site7020]	9.67
AAAAGTTAAGCAACAAATTTTATTTCTTATATATAA [TGCATGCA_negctrl_site134]	8.91
ATATTTATAAATTGCACACAAATAATAACATTATAT [CACACA_site5322]	9.39
AAAATTCTTATAAGATGTACAATTTGTAACACTATA [XGTACX_site510]	9.14
TTTTGTATATATTATTGTACTTTTAATATAGATCGT [XGTACX_site5830]	9.22
AAATAAATATATAATACACACAAAAATATAAAATGT [CACACA_site3711]	10.1
TCACATACATTACTTACACACCATATTAAGATATAC [CACACA_site4415]	9.54
TTTTTTACAACACGAAAATGAACAATTATAATAAAT [TGCATGCA_negctrl_site301]	9.31
TTATACTCACGTTACACACACACAATATATATATAT [CACACA_site4137]	10.1
ATAATATATATATGTAGTACGTATATAATTTTAATA [XGTACX_site5228]	9.27
ATATTTATGACCGTACGTACCTAACAATACAATCAA [XGTACX_site4511]	9.22
TGAATTTCAAAACAGTGTACATTAATATATATATAA [XGTACX_site7951]	9.06
AAAAATAAAAAAAACACACATACCTTATTTTTGTTC [CACACA_site2634]	9.75
AATTAAAATTTTTTTTTTTTTTTTTTTTTTCTATTA [CACACA_negctrl_site1585]	9
TATATATAGAAACACACACACAAAAAAAAAAAAAAA [CACACA_site1506]	9.59
TATATATCCTTCTATGCATGCATATGGATAGATTTC [TGCATGCA_site58]	8.97
ATTTAAAAAACTTTTAGCAAAAAAAAAAAATAATAA [TGCATGCA_negctrl_site191]	9.03

Sequence	gcPBM binding intensity (ln)
AAATTGATATTATATATATATATATATATATATATA [GTGCAC_negctrl_site482]	8.89
ATATATATATACATACGTACACACAAATATTAAAAT [XGTACX_site4007]	9.67
TCCTATATCACAAATGTGCACAGAAAAAAAAAATAT	9.31
TGTATACATAATATTTGTACATATTGTTATATATAT [XGTACX_site740]	9.35
AATATATATAATAATTGTACAATACGTATGTTATAT [XGTACX_site8745]	9.43
TTATAAAAAAAAAAAAAAAAGAAAATGAATTCACGA [CACACA_negctrl_site1248]	9.18
TTCGACGAGAGCAAGTGTACTCTTGAATAATTTATA [XGTACX_site7613]	8.91
ATTTTATTTTTTGAGTGTACTAGTTCAACAACTCCG [XGTACX_site8600]	9.19
TGTTATATATTATATACATGCACAAAAGCAACACAA [TGCATGCA_site1009]	9.31
AACTTTTTTATATGCACACATAAACAAGGATATATA [CACACA_site2874]	9.35
AAAAAAAAAAAAAACACACACACACCCATACACATA [CACACA_site2860]	10.1
CAAAAAATACGATGTTGTACTATGTATTCCTGATGT [XGTACX_site246]	9.36
TACTTCGATAATAATCGTACATATATATTGTATTTA [XGTACX_site5700]	9.34
TATATATACATAAAAACATGCAATATATACACATTA [TGCATGCA_site444]	9.32
TTGTTTTGCTAAAAATGTACTCTATATAAAAGCTTT [XGTACX_site4027]	8.98
TATATATATTATATATGTACACATATGTGAGAATGA [XGTACX_site2992]	9.31
ATTTATATGTAGATGTGTACTTAATTGTAATGTGTT [XGTACX_site6422]	9.53
TATCAAAATAAATGCACACAAATTGCACATATCTAT [CACACA_site1097]	9.43
CAAAAACATACCTACACACACAATATGTATAAATAA [CACACA_site7617]	10
TCTAGGAAAAATTATAGTACACAAAAATATATATAT [XGTACX_site4136]	9.38
TATGACACTTTGAAGGGTACATGCAGAAAAAAAAAA [XGTACX_site569]	9.09
TTATATGCACTTTTTGCACACGTATGAATAACAAAA [CACACA_site1811]	9.17

Sequence	gcPBM binding intensity (ln)
ATATATACATATACTATATCTTTTATTTTTATTATT [GTGCAC_negctrl_site127]	9.46
TATATATATTAAAAACGTACAAAATAAGAATTAATT [XGTACX_site5979]	9.51
TATAAATAAATAAACACACACAAATAAAATAAAAAA [CACACA_site7623]	10.1
TTTTTTTGCCATATTACACACACACCGGTAAACCCC [CACACA_site8475]	10.2
TTTATTTATTTATTCTTATTTTTTTTTTTTTTTACT [CACACA_negctrl_site257]	9.22
ACATATTAGGGTCATGAACACACAAAAAAAAAAAAA [CACACA_site8218]	9.32
AATTCAGCTTTACAACGTACACAATCATATGTCTAT [XGTACX_site8113]	9.28
TAATACATAAATGATTGTACATAAGAATTGAAACAT [XGTACX_site4583]	9.41
ATGAAGATTTAAAAATGTACATATGATCTATGTCCT [XGTACX_site8409]	9.09
GTGAAGGTTTATATGTGTACATATATGTATTATATA [XGTACX_site326]	9.28
ATTTCATACAGACACACACACAAACAAACATATATA [CACACA_site979]	10.1
ATTATATATACATATACACACATACGTACATACATA [CACACA_site9194]	9.72
TTTTTTTTTTTTAATGCACACAGTGAACTTTTACTT [CACACA_site3567]	9.3
TTTAATAAATTGTGTACACAAAACATATAAATTTCG [CACACA_site5644]	9.17
GACATTTCTTGGGATACATGCATGTCCCAGAACAAA [TGCATGCA_site271]	8.95
ATTATCAAGACATTGCGTACTTAAAAAAAAAAAAAT [XGTACX_site6347]	9.1
TTATTATTCATATATTCACACATTAAAATTTTTCAA [CACACA_site4243]	9.2
CATATATAATAATATTGTACATATATAATAATAATA [XGTACX_site3338]	9.27
CATAAAAATGGATACACACACATAATATATATATAT [CACACA_site3619]	9.95
AAAAAAATTAATGTGTGTACTTAGATATAATGTTTA [XGTACX_site8862]	9.38
TAATTTTTTTTTTATTGTACTTAATATTTTTAATTT [XGTACX_site5929]	9.26
TTACAAATATTATAAAGTACAAACCAGTAGATTTTG [XGTACX_site2272]	9.12

Sequence	gcPBM binding intensity (ln)
TATTTTTTTTTTTTTTTTTTTACCTTTCCACTCAAA [CACACA_negctrl_site1454]	9.04
TCATTCTAAATATAAACACACATAAATATGTACATT [CACACA_site7555]	9.24
TTTTTTTTTTTTAAAAGTACATAGTAGTAATTATAG [XGTACX_site4232]	8.72
AAGATCATATATTCGTGGGTATAAAAAGTTATAATA [TGCATGCA_negctrl_site439]	9.09
AGAAATATGTTGAAGCATTTATAATGTAGATATAAG [GTGCAC_negctrl_site640]	9.24
AAAAAAAAAAAAAATACACACAAACACAAATTAAAT [CACACA_site5982]	10
GTAATATTATAATATACACACATAGAATATATATAT [CACACA_site413]	9.64
TAATTTACACCTACGTGTACACACAAAAATATGTTT [XGTACX_site1868]	9.59
TTTATTATCAAGATTGCACACCCTTATGAACTTTTT [CACACA_site3166]	9.33
ACAAAAAAAAAGGAAACACACAAAAAAAAAAAATAA [CACACA_site3523]	9.75
ACTATATTTCTATAATGTACAAAAATAAATCATATG [XGTACX_site3337]	9.19
ACCTATAAAAAATAATGTACAGGAAGAAATATAAGG [XGTACX_site5822]	9.63
TATATATATATATATGTATGCATGTCCTTTTTTATT [TGCATGCA_site344]	9.35
ATTTTTTTTAAACGAAGTACAATTTGTGCATTGGAA [XGTACX_site8109]	9.01
TTTTTTTTTTTTGTAGTGCAAATTAAAAATATATGT	8.98
AATATATGGTTTCATGATATAAAATTCAATTTAATG [GTGCAC_negctrl_site610]	9.06
TGTTTATCATATTTGTGTCCTCATTTTTTAGTATCA [XGTACX_site947]	9.45
TTATTTCTTCAGAAAAAATTAAAAAATTAAACAATA [CACACA_negctrl_site169]	8.9
ATTTTTTTTTTTTTTTTTTTTTTTTTTTTTTTATGC [CACACA_negctrl_site1018]	8.86
AAAAAAAAAAAAAACACACACATATAACATATTTAA [CACACA_site6745]	9.67
TGTTTACACTTTTTTTGTACACATAATTTTATTTGA [XGTACX_site3760]	9.22
TATTCTAGTCTGCTTACACACATATTTATATTTATA [CACACA_site7432]	9.8
